Laboratory results as given in PubChem BioAssay AID686979 (National Center for Advancing Translational Sciences (NCATS), 2013).
The whole screen tested about 420,000 compounds, of which about 50,000 (12%) were called active. This list was built around the results that the source calls inconclusive (neither active nor inactive); the mix of calls is not that of the screen. Calls come from the whole dose curve; as a rule, active = well fitted inhibition curve with a large enough effect; inconclusive = small, poorly fitted or top-dose-only effect; inactive = flat fitted curve, though single readings scatter. No potency is given beside an inconclusive call; the fits are too rough.

Test: qHTS for Inhibitors of human tyrosyl-DNA phosphodiesterase 1 (TDP1): qHTS in cells in presence of CPT; note: nearly all actives have a fitted effect of over 55% in size
Settings: chicken DT40 Tdp1-/-;hTDP1 cells + 20 nM CPT, ATP luminescence, 48 h; series mostly up to 46.2 µM
Summary of the method: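 Cell growth measured by CellTiter-Glo luminescence after a minimum 48 h, 37 C compound exposure with 20 nM CPT in Tdp1-knockout DT40 cells stably expressing hTDP1, seeded 400/well; qHTS titration format.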
Potency is the fitted concentration of half-maximal effect; tags give direction and shape of the fitted curve.

Row | SMILES | Potency
1 | COC1=C(c2ccccc2)C(=O)c2ccccc2C1=O | active: 23.1 µM
2 | Cc1ccc2[nH]c(C(=O)N3CCCC(Nc4ccc(F)cc4)C3)cc2c1 (stereo not given) | inconclusive [inhibitor, single point]
3 | CCCOc1ccc(-c2nn(-c3ccccc3)cc2/C=C2\SC(N)=NC2=O)cc1C | active: 16.4 µM
4 | Cc1coc2c(C)c3oc(=O)c(CC(=O)NCCc4ccc(Cl)cc4)c(C)c3cc12 | inconclusive [inhibitor, single point]
5 | OCC1(CCCc2ccccc2)CCN(C2CCC2)CC1 | inactive
6 | COc1ccc(CCN2C(=O)c3[nH]nc(-c4ccccc4O)c3C2c2cccc(Cl)c2)cc1 (stereo not given) | active: 23.1 µM
7 | CC(C)(C)n1nnnc1CN1CCN(C(c2ccccc2)c2ccccc2)CC1 | inconclusive [inhibitor, partial curve, poor fit]
8 | COc1ccc(CNC(=O)C2CCN(C(=O)[C@@H]3Cc4ccccc4CN3)CC2)cc1 | active: 16.4 µM
9 | COc1cc(/C=C/C2=NC(=O)C(C)(C)O2)ccc1O | inconclusive [inhibitor, partial curve]
10 | OC[C@@H](O)[C@@H](O)[C@H](O)[C@@H](O)CO | inactive
11 | O=C(COc1ccccc1F)Nc1nnc(SCc2cc(=O)c3ccccc3[nH]2)s1 | inconclusive [inhibitor, single point]
12 | Cc1cccc(CSc2nc(-c3cccs3)ccc2C#N)c1 | inconclusive [inhibitor, single point]
13 | C=CCc1c(C)nc2nc(SCC(=O)Nc3ccc(C)c(C)c3)nn2c1C | inconclusive [inhibitor, single point]
14 | O=C(COc1cc(F)ccc1[N+](=O)[O-])Nc1cccc(S(=O)(=O)NC2=NCCC2)c1 | inactive
15 | O=[N+]([O-])c1ccc(S(=O)(=O)N2CCSC2c2ccco2)cc1 (stereo not given) | inconclusive [inhibitor, single point]
16 | COc1ccc(-c2cc(C(=O)Oc3ccc([N+](=O)[O-])cc3)c3ccccc3n2)cc1 | inconclusive [inhibitor, single point]
17 | COc1cc(OC)cc(C(=O)Nc2cccc(NC(=O)c3cc(OC)cc(OC)c3)n2)c1 | inconclusive [inhibitor, single point]
18 | O=S(=O)(c1cc(Cl)ccc1Cl)n1cccn1 | inactive
19 | FC(F)(F)COc1cc(-c2nnc(SCc3ccccc3)n2Cc2ccco2)cc(OCC(F)(F)F)n1 | inconclusive [inhibitor, single point]
20 | S=C(Nc1cccc2ccccc12)Nc1cccc2ccccc12 | inconclusive [inhibitor, full curve, poor fit]
21 | O=C(CSc1nc2ncc(Cl)cc2[nH]1)NC1CCS(=O)(=O)C1 (stereo not given) | inactive
22 | COc1ccc(C2CC(c3ccc(OC)c(OC)c3)=NN2S(C)(=O)=O)cc1 (stereo not given) | active: 18.4 µM
23 | O=S(=O)(c1cccs1)N1CCN(CCOc2ccc(Cl)cc2)CC1 | inconclusive [inhibitor, single point]
24 | COc1cc(N)ccc1Nc1c2ccccc2nc2ccccc12 | active: 0.82 µM

Row | SMILES | Potency
25 | CCOC(=O)c1c(NC(=O)COC(=O)Cc2c[nH]c3ccccc23)sc(C(=O)N(C)C)c1C | inactive
26 | COc1ccc(CN(C)CC(=O)Nc2cccc(S(N)(=O)=O)c2)c(OC)c1OC | inconclusive [inhibitor, single point]
27 | COCCCNC(=O)c1ccc(-n2c(-c3ccccc3)cc3c2CCC(C)C3)cc1 (stereo not given) | inconclusive [inhibitor, single point]
28 | Cc1ccccc1NC(=O)Cc1nc(COC(=O)CCc2ccccc2)cs1 | inconclusive [inhibitor, partial curve]
29 | Cn1c(-c2ccc(Br)cc2)cnc1NCc1ccc(C#N)cc1 | inconclusive [inhibitor, partial curve, poor fit]
30 | COc1cccc(-c2cnc3c(NC(C)=O)cc(-c4ccc(S(C)(=O)=O)cc4)cn23)c1 | inconclusive [inhibitor, single point]
31 | NC(=O)c1ccccc1NC(=O)C(c1ccccc1)c1ccccc1 | inconclusive [inhibitor, single point]
32 | COc1cccc(N2CCN(C(=O)c3cccn3-c3nnc(N4CCCC4)s3)CC2)c1 | inconclusive [inhibitor, single point]
33 | COc1ccc(CCNC(=O)COc2cc(O)c3c(c2)OC(C)(C)CC3=O)cc1OC | inconclusive [inhibitor, single point]
34 | COc1ccc(C(=O)CSc2nnc(-c3cc(C)on3)o2)cc1 | inconclusive [inhibitor, single point]
35 | CCOC(=O)N1CCC(N(CCOC)C(=O)Nc2ccc(C)c(C)c2)CC1 | inactive
36 | COc1ccccc1-n1c(=O)[nH]c2c(C(N)=O)nc(C3CCCCC3)nc21 | inconclusive [inhibitor, single point]
37 | NC(=O)C1CCN(C2CC(=O)N(Cc3ccc(N4CCCC4=O)cc3)C2=O)CC1 (stereo not given) | active: 25.9 µM
38 | COc1ccc(C(=O)N2CCn3c(C)ccc3C2C)cc1 (stereo not given) | inconclusive [inhibitor, single point]
39 | CN(C)c1nc(N)nc(N(c2ccccc2)c2ccccc2)n1 | inconclusive [inhibitor, single point]
40 | O=C(OCC(=O)C12CC3CC(CC(C3)C1)C2)c1ccccc1O | inconclusive [inhibitor, single point]
41 | COc1ccc(NC(=O)C(c2cc3ccccc3o2)n2c(=O)c(-c3cc4ccccc4[nH]3)nc3ccccc32)cc1 (stereo not given) | inconclusive [inhibitor, single point]
42 | Cc1cc(C(F)(F)F)nc(SCC(=O)Nc2cc(C)on2)n1 | inactive
43 | Cc1cc(F)ccc1S(=O)(=O)N1CCCOC1CNC(=O)C(=O)NCCC1=CCCCC1 (stereo not given) | inconclusive [inhibitor, single point]
44 | CCOC(=O)CN(C(=O)CSc1nnc(COc2ccc(OC)cc2)n1CC)c1ccccc1 | inactive
45 | CCCCOc1cccc(C(=O)Nc2ccc(S(=O)(=O)Nc3cc(C)on3)cc2)c1 | inactive
46 | CC(=O)N=c1sc(C(C)(C)C)c(C)n1C | inconclusive [inhibitor, single point]
47 | O=C1Nc2ccccc2C1=Nc1ccccc1-c1ccccc1 | inconclusive [inhibitor, single point]
48 | O=C(NNc1nc2c(F)cc(F)cc2s1)C1=COCCO1 | inactive

Row | SMILES | Potency
49 | CSc1ncc(CN2CCCC(C(=O)Nc3ccc(-c4ccco4)cc3)C2)cn1 (stereo not given) | inconclusive [inhibitor, single point]
50 | C1CCCCCC2(CCCCC1)OCC(CN1CCOCC1)O2 (stereo not given) | inconclusive [inhibitor, single point]
51 | O=C(OCc1cccc(Cl)c1)c1cc([N+](=O)[O-])ccc1N1CCOCC1 | inconclusive [inhibitor, single point]
52 | COc1ccc(Cl)cc1-n1c(=S)sc2c(=O)n(-c3ccc(F)cc3)c(SCC(=O)O)nc21 | inactive
53 | Cc1ccc(-c2csc(NC(=O)c3c(C)noc3C)n2)cc1C | active: 18.4 µM
54 | C#Cc1cccc(-n2nnc(C(=O)OC)c2-c2ccccc2)c1 | inactive
55 | Cc1ccc(/C=C/C(=O)OCC(=O)N(CC(C)C)c2c(N)n(Cc3ccccc3)c(=O)[nH]c2=O)o1 | inconclusive [inhibitor, single point]
56 | COc1cccc(-c2nnc(SCC(=O)NC3CCCCC3)o2)c1 | inconclusive [inhibitor, single point]
57 | O=C(Nc1cccc2ccccc12)c1ccccc1 | inconclusive [inhibitor, partial curve]
58 | COc1ccc(CCN2C(=O)c3oc4cc(C)cc(C)c4c(=O)c3C2c2ccccc2F)cc1OC (stereo not given) | inconclusive [inhibitor, full curve]
59 | COc1ccc(S(=O)(=O)Nc2ccc(-c3cn4ccsc4n3)cc2)cc1C | inactive
60 | CCc1c(C(=O)NCCc2cccc(C)c2)[nH]c(C)c1C(C)=O | active: 16.4 µM
61 | CCCCCC(=O)Nc1cccc(C2=NOC3(C2)C[C@@H](C(N)=O)N(C(=O)c2cc([N+](=O)[O-])cc([N+](=O)[O-])c2)C3)c1 (stereo not given in full) | inconclusive [inhibitor, single point]
62 | CC(=O)c1oc2ccccc2c1NC(=O)CN1CCCCC1 | inconclusive [inhibitor, partial curve]
63 | CCN(CC)CCNC(=O)CNC(=O)c1nn(-c2ccc(OC)cc2OC)c(=O)c2ccccc12 | inactive
64 | COc1ccc(C(=O)OCCOc2cccc(Cl)c2)cc1S(=O)(=O)N1CCOCC1 | inconclusive [inhibitor, single point]
65 | CCN(CCO)c1ccc(Nc2cc(-c3ccc(-c4ccccc4)cc3)ncn2)cc1 | active: 18.4 µM
66 | Cc1ccc(NC(=O)c2csc(-c3ccccc3)c2C)cc1 | inconclusive [inhibitor, single point]
67 | CCCCCCCn1c2c(c(=N)c3ccccc31)CCC2 | active: 0.517 µM
68 | NC(=S)N/N=C\c1c2ccccc2cc2ccccc12 | active: 14.6 µM
69 | C/C(=N/NC(=O)c1ccc(O)cc1)c1cccc([N+](=O)[O-])c1 | inactive
70 | O=C(O)COc1nn(Cc2ccccc2)c2ccccc12 | inactive
